PubChem BioAssay AID1508624 (National Center for Advancing Translational Sciences (NCATS), 2021)
Out of some 48,000 compounds screened, about 120 (0.25%) were called active. Roughly 4% stayed inconclusive and do not appear here. Calls come from the whole dose curve; as a rule, active = well fitted activation curve with a large enough effect; inconclusive = small, poorly fitted or top-dose-only effect, or another doubt; inactive = no such curve, though single readings can be large or run the other way. Some of the results follow.

assay: Primary qHTS for Identification of Small Molecule Activators of Huntingtin-Antisense Promoter Activity; conditions: HEK293 HTT-AS promoter firefly luciferase reporter, 24 h; series mostly up to 57.5 µM; activity change, positive = activation: at the top concentration; note: nearly all actives have a fitted effect of over 55% in size
Method in brief: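 Luminescence was read after Dual-Glo reagent and a 10 min room-temperature incubation. Values were normalized to vehicle (0% activity) and zero RLU (-100% activity). Reporter HEK293 cells had been exposed to compounds (up to 57.5 uM final) for 24 h.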

Activity change, positive = activation, inactive:
COc1ccc(Nc2ncc(C(=O)N3CCN(c4ccccc4OC)CC3)c3ccccc23)cc1 -46.2%
Cc1ccccc1Cn1c(=O)n(CCCCCC(=O)NCc2ccc3c(c2)OCO3)c(=O)c2sccc21 -8.74%
O=C(Cn1ncc2c3ccccc3n(Cc3cccc(Cl)c3)c2c1=O)NCCC1=CCCCC1 -0.845%
CO[C@@]1(NC(=O)CSCC#N)C(=O)N2C(C(=O)O)=C(CSc3nnnn3C)CS[C@@H]21 -0.58%
CCN(CC)c1ccc(CNS(=O)(=O)c2cc3c(cc2C)NC(=O)CO3)cc1 -21.7%
COc1ccc(NC(=O)CSc2ncc3c(n2)-c2ccccc2N(C)S3(=O)=O)cc1Cl -6.11%
CCOc1ccc(NC(=O)Nc2c[nH]c(=O)[nH]c2=O)cc1 -0.293%
Cn1c(SCc2ccccc2Cl)nc(=O)c2c1NC(=O)CC2c1cc(F)ccc1F (stereo not drawn) -14.7%
Cn1cc(S(=O)(=O)N2CCCCC2)cc1C(=O)Nc1ccc(OC(F)(F)F)cc1 -20.6%
O=C(Cn1cc(S(=O)(=O)c2ccccc2)c(=O)c2cc3c(cc21)OCO3)Nc1ccccc1 -15.7%
O=C(NCCCc1ccccc1)c1nn(-c2ccccc2)nc1CO -30.8%
Cc1noc(-c2ccc(-c3noc(-c4cccc(Cl)c4)n3)cc2)n1 11.3%
Cc1ccc(S(=O)(=O)C(CNC(=O)c2ccc(C(F)(F)F)cc2)c2ccco2)cc1 (stereo not drawn) -3.33%
N=C(N)c1ccc(OCCCOc2ccc(C(=N)N)cc2)cc1 -8.5%
CCc1ccc2occ(CC(=O)Nc3sc4c(c3C(=O)NCCOC)CCCC4)c2c1 -28.3%
Cc1nc2nc(SCC(=O)NC3CCC(C)CC3)nn2c(C)c1Cc1ccccc1Cl (stereo not drawn) -18.7%
CCn1cc2nc(SCc3cccc(C)c3)n(CCc3ccccc3)c(=O)c2n1 -3.84%
Cc1nc2c(-c3ccccc3)c(C)nn2c(C)c1CCC(=O)NCc1ccccc1 -22.4%
Cc1ccc(S(=O)(=O)n2nc(-c3ccco3)nc2NCc2ccc(N(C)C)cc2)cc1 2.34%
CCOC(=O)c1ccc(NC(=O)CCC(=O)N2CCSc3ccccc32)cc1 -25.8%
CCc1ccc2oc(-c3ccc(C)c(NC(=O)c4ccc(C#N)cc4F)c3)nc2c1 -17.7%
CCc1ccc(NS(=O)(=O)c2c(-c3ccccc3)csc2C(=O)OC)cc1 -30.7%
Cc1cc(NCc2ccc(Cl)cc2)n2cnnc2n1 -70.1%
COc1ccccc1N(CC(=O)Nc1cc(C)cc(C)c1)S(C)(=O)=O -15.2%
O=C(Nc1nnc(S(=O)(=O)N2CCCCCC2)s1)c1ccccc1 23.4%
CN(Cc1ccco1)S(=O)(=O)c1nnc(NC(=O)c2ccccc2)s1 27%
CCc1cccc(NC(=O)Cn2ccn3nc(-c4ccc(OC)c(OC)c4)cc3c2=O)c1 -1.48%
Cc1ccccc1NC(=O)Cn1cc(S(=O)(=O)N2CCCC2)c(S(=O)(=O)N2CCCC2)c1 10.7% [at 11.5 µM, percent change from vehicle, -100% = no light]
CC1=C(C(=O)Nc2ccccc2)C(c2ccccn2)n2nc(SCc3ccccc3Cl)nc2N1 (stereo not drawn) -4.32%
CCOc1ccc(NC(=O)c2nnn(-c3ccc(F)c(Cl)c3)c2C)cc1 -18.5%
COC(=O)c1ccc(Oc2nc3c(c(=O)n(C)c(=O)n3C)n2Cc2ccc(Cl)c(Cl)c2)cc1 -9.07%
COc1ccc(NC(=O)c2oc3ccccc3c2NC(=O)C23CC4CC(CC(C4)C2)C3)cc1 -19.1%
COc1ccc(OC)c(NC(=O)c2c(NCc3ccc(N(C)C)cc3)sc3c2CCCC3)c1 -15.7%
COc1ccc(S(=O)(=O)N(CC(=O)Nc2ccc3c(c2)OCO3)c2ccc(C)cc2)cc1 -24.6%
O=C(NCc1ccccc1Cl)c1ccc(NC(=O)N2CCSc3ccccc32)cc1 -11.5%
COc1cc(OC)cc(C(=O)Nc2ccc3c(c2)n(C)c(=O)c(=O)n3C)c1 -11.6%
Cc1ccc(OCc2cc(=O)n3c4c(sc3n2)CCCC4)cc1C -2.37%
Cc1ccc(C)c(Cn2c(=O)n(-c3ccc(F)cc3)c(=O)c3sc4ccccc4c32)c1 -3.64%
Clc1cccc(-n2ncc3c(Nc4ccc5c(c4)OCCO5)ncnc32)c1 3.11%
COc1ccc(N2CCN(C(=O)Cn3c(-c4cccs4)cc4ccccc43)CC2)cc1 -14.7%
CC(=O)N1CCc2cc(S(=O)(=O)NC(Cc3ccccc3)C(=O)Nc3ccc(C)cc3C)ccc21 (stereo not drawn) -23.6%
O=C(CSc1nc2ccsc2c(=O)n1Cc1ccccc1F)NCc1ccccc1Cl -34.2%
O=C(Nc1cccc(Cl)c1Cl)c1cc(S(=O)(=O)N2CCCc3ccccc32)ccc1F -27.9%
CCC(=O)N1CCCc2cc(S(=O)(=O)N3CCC(C(=O)Nc4cccc(Cl)c4)CC3)ccc21 -31.1%
Cc1ccc(C(=O)Nc2ccc3oc(-c4cc(Br)ccc4Cl)nc3c2)cc1 -2.5% [at 11.5 µM, percent change from vehicle, -100% = no light]
O=c1cc2nc(-c3ccccc3)nc(SCCOc3ccc(Cl)cc3)n2[nH]1 -22.9%
CCOC(=O)c1cnc2c(C)cc(C)cc2c1Nc1ccccc1OCC 21.1%
COc1ccc(C(=O)Nc2ccc3oc(-c4cc(Cl)ccc4Cl)nc3c2)cc1Br -5.04%
CCCN(C(=O)Cn1ncc2c([nH]c3ccccc32)c1=O)c1ccc(F)cc1 -41.5%
COc1ccc2c(c1)c(=O)c(S(=O)(=O)c1ccccc1)cn2CC(=O)Nc1ccc2c(c1)OCO2 2.26%
CCOC(=O)C1CCCN(C(=O)c2ccc3c(c2)N(Cc2ccccc2F)C(=O)c2ccccc2S3=O)C1 (stereo not drawn) -16.6%
COc1ccc(CCNC(=O)CCn2c(=O)c3ccccc3n(CC(=O)Nc3cc(Cl)ccc3C)c2=O)cc1OC -6.69%
CC(=O)c1cccc(NC(=O)CCCSc2nc(-c3ccco3)cc(C(F)(F)F)n2)c1 -8.33%
COC(=O)C1C2CC3c4[nH]c5cc(OC)ccc5c4CCN3CC2CC(OC(=O)c2cc(OC)c(OC)c(OC)c2)C1OC (stereo not drawn) -6.75%
CCc1ccccc1NC(=O)Nc1cc(C(=O)NCc2ccccc2OC)ccc1N1CCCC1 -1.33%
CCOC(=O)C(C)(C)Oc1ccc(Cl)cc1
COc1ccc(NC(=O)CN2C(=O)C(c3ccc(C)cc3)=NC23CCCCCC3)cc1Cl -24.7%
Cc1ccc(NC(=O)c2ccc(CNS(=O)(=O)c3ccc4c(c3)C(C)(C)C(=O)N4C)cc2)cc1 -33.8%
COc1cccc(-c2nc(SCC(=O)NCC3CCCO3)c(-c3ccc(Cl)cc3)[nH]2)c1 (stereo not drawn) -28.4%
CN(C)CCNC(=O)C(=O)NCC(c1cccnc1)N1CCN(c2ccccc2)CC1 (stereo not drawn) -7.53%
CN1CCN(C(=O)c2ccc3c(c2)N(Cc2ccc(Cl)cc2)C(=O)c2ccccc2S3(=O)=O)CC1 -16.2%
O=C(c1ccccc1Br)N(Cc1ccccc1F)C1CCS(=O)(=O)C1 (stereo not drawn) -3.1%
CCC(C)NC(=O)CSCc1nc(-c2ccc(C)cc2)oc1C (stereo not drawn) -18.6%
Cc1cccc(CC(=O)NCCc2sc3nc(-c4ccc(F)cc4)nn3c2C)c1 -3.05%
CCOc1ccc(CCNC(=O)c2ccc(-c3nc(CSc4ccccc4)c(C)o3)cc2)cc1 16.6%
COc1ccc(OCC(=O)N(Cc2ccc(C)o2)C2CCS(=O)(=O)C2)cc1 (stereo not drawn) -3.45%
CCc1ccc(N(CC)C(=O)c2sc3nc4n(c(=O)c3c2C)CCCC4)cc1 -18.7%
COc1ccccc1NC(=O)CN1C(=O)CCSc2ccccc21 -13.7%
Cc1ccc(Cl)cc1NC(=O)CSCc1cnn(-c2ccccc2)c1-n1cccc1 -22.4%
O=C(Cn1c(=O)ccc2cc(S(=O)(=O)N3CCCC3)ccc21)Nc1ccc(Cl)cc1 -33.3%
NS(=O)(=O)c1cc(-c2nn[nH]n2)c(NCc2cccs2)cc1Cl 2.17%
Cc1cccc(NS(=O)(=O)c2ccc3c(c2)CCN3C(=O)C2CC2)c1C -35%
CCN(C(=O)c1cn(C)c(=O)c2ccccc12)c1cccc(C)c1 -19.1%
Cn1nnnc1SCCCNCc1ccccc1OCc1ccc(F)cc1 -19.8%
O=C1CCCc2c(O)cccc21 4.18%
COC(=O)c1c(NC(=O)/C=C/c2ccc(OC)cc2)sc2c1CCC2 2.14%
COc1ccc(CNC(=O)CSc2ncc3c(n2)-c2cc(Cl)ccc2N(C)S3(=O)=O)cc1 -10.6%
CCOC(=O)Cn1c(-c2cccs2)cc2cc(Cl)ccc21 -21.8%
CC(C)c1cnc2c(c1SCC(=O)Nc1ccc(C(N)=O)cc1)c(=O)n(C)c(=O)n2C 1.65%
CCN1C(=O)c2ccccc2Sc2ccc(NC(=O)c3cccc(C)c3)cc21 -32.2%
Cc1ccc(NC(=O)Nc2cccs2)c(C)c1 2.15%
CN(CCCNC(=O)c1cc2c(=O)n(C)c3ccccc3c2s1)Cc1ccccc1 5.21%
O=C(Cn1c(=O)n(-c2ccccc2)c(=O)c2ccc(C(=O)NCc3ccc4c(c3)OCO4)cc21)Nc1ccc(F)c(Cl)c1 -32.4%
CCOC(=O)c1cc(OC(=O)c2ccccc2OC)n(-c2ccccc2)n1 -10.9%
COc1ccc(N(C(=O)c2cccc(C)c2)S(=O)(=O)c2ccc3c(c2)n(C)c(=O)n3C)cc1 -2.75%
COc1ccc(CCNC(=O)c2ccc3c(c2)N(Cc2cccc(Cl)c2)C(=O)c2ccccc2S3=O)cc1OC (stereo not drawn) -7.32%
CCc1ccc(NC(=O)CN2C(=O)C3CCCN3c3ccc(S(=O)(=O)N(CC)CC)cc32)cc1 (stereo not drawn) -20.7%
COc1ccc(CCNc2ncnc3onc(-c4ccc(Cl)cc4)c23)c(OC)c1 -28.5%
Cn1cc(S(=O)(=O)N2CCCCCC2)cc1C(=O)N1CCN(c2ccccc2F)CC1 -20.2%
Cc1ccc(N(CC(O)Cn2c3ccccc3c3ccccc32)S(=O)(=O)c2ccc(F)cc2)cc1 (stereo not drawn) -54.7%
CCC(Cc1c(I)cc(I)c(N)c1I)C(=O)O (stereo not drawn) -3.26%
Cc1ccccc1Nc1sc(C(=O)c2ccccc2)c(N)c1S(C)(=O)=O -29%
CCc1ccc(NC(=O)Cn2c(=O)n(CCCC(=O)NCc3ccccc3Cl)c(=O)c3ccccc32)cc1 -7.33%
